# Source: the supplement of paper PMC11417369
# ± gives the standard deviation of the averaged measurements. Some of the results follow.
# System: PfAP2-G AP2 domain (GST-tagged)
# Assay: gcPBM binding intensity (ln(normalized median fluorescence intensity)); higher = stronger DNA binding
# How it was run: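 The binding buffer was 1× PBS containing 1% milk, 0.2 mg/ml BSA, 0.5% salmon testes DNA and 0.03% Triton X-100. In it, GST-tagged P. falciparum DNA-binding domains expressed in E. coli were applied for 1 h to an Agilent 4 × 180k array of primer-extended double-stranded 36-bp intergenic genomic probes plus negative controls. Binding intensity, read with Alexa488 anti-GST antibody and a 488 nm scan, is the highest Masliner-normalised natural-log median intensity across replicate spots of either probe orientation.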
row,Sequence,gcPBM binding intensity (ln)
1,ATGAATAAATGAACATGTACATATATATATATATTA [XGTACX_site5005],11 ± 0.53
2,TACATATATATATGTATATATATATATATATAAATA [XGTACX_negctrl_site351],9.58 ± 0.16
3,AATAATAAAAAATACACACACATATATATATATTAC [CACACA_site3464],9.885 ± 0.064
4,TAAACATTGTAAAGGAGTACAAAATTTTTTTTATGA [XGTACX_site7757],11.4 ± 0.96
5,TTTTTTTCATATAACACACACACAAAAATAATGTGG [CACACA_site3688],10.2 ± 0.16
6,CATACACAAGAAAATTCACACACACCCATATATATA [CACACA_site9288],9.94 ± 0.15
7,TCTTACAAAAAACAAACAGAGAAAAATATAAGGAAA [XGTACX_negctrl_site520],9.81 ± 0.14
8,AACATACAGAAACACACACACACACCCACACCCACA [CACACA_site493],10.4 ± 0.31
9,TTTTTTTTTTTGTATCGTACATTTATAATGTTTATA [XGTACX_site6804],10.6 ± 0.47
10,AAGTTAACAATATGAAGTACAAATGAAAAAAAAAAA [XGTACX_site666],11.2 ± 0.84
11,ATATATATATATCATAGTACACATATGTGTCTCGTG [XGTACX_site774],11.1 ± 0.66
12,TTGTTATAGAAGCATTCACACACACCCATACATACA [CACACA_site8414],10.5 ± 0.42
13,AATATCATTATATAAGTGCATTTTTTAAAAGATAAA [GTGCAC_site9479],9.855 ± 0.049
14,TTAATAGGTCGAAGTAGTACATAAAAATATATATAT [XGTACX_site5960],11.4 ± 0.98
15,ATATATATTTATTTATGTACGAATAAATTTACGAAT [XGTACX_site5190],11.1 ± 0.8
16,TATATACCACATTGTTGTACGACACATTTACATTTT [XGTACX_site8370],11.4 ± 0.67
17,TCAAAGCACAGATACACACACATATATATATATATA [CACACA_site287],10 ± 0.19
18,AATTAAAAAATTATCACACATATATATATATATATA [CACACA_site5789],9.95 ± 0.42
19,ATGTCTTTGAAAAAAAGTACTTAAAATTATAAAAAT [XGTACX_site147],11.4 ± 0.66
20,ACTGTCGTTTTAAAGAGTACATAAAATATTAAATTA [XGTACX_site3589],11.3 ± 0.86
21,TTCTTTTAAAGGTATACATGCGCATGGATTTTTCAT [TGCATGCA_site223],10.2 ± 0.18
22,AAGTAAATATAATAAGGTACACATAAATAAATAAAT [XGTACX_site1740],11.2 ± 0.86
23,ATTCTGAATGTTATGCGTACATATTAATCCTATTTA [XGTACX_site1216],11.5 ± 0.93

row,Sequence,gcPBM binding intensity (ln)
1,TAAGGTTCATTAAAGTGTACACATAAATACCGTAAC [XGTACX_site8212],11.6 ± 0.95
2,TGTAATAATTATTGCACGCACACAAAAACCTATAGA [CACACA_site2932],10.7 ± 0.4
3,TCCAAATAAATATATTGTACAGAATTATTGATACCT [XGTACX_site327],10.8 ± 0.42
4,ATGTTGTTATAAAGAGTGCAACGTATATGTATCCTT [GTGCAC_site9935],10.2 ± 0.057
5,AGAAAAGGAAAATAAACATGCAAAAATAATATTAAA [TGCATGCA_site337],9.77 ± 0.28
6,GGAAACACGATATATACACACATATTTATATTTATA [CACACA_site6250],10.01 ± 0.057
7,AAAGATAATATATGCACACATATAAATATATAAATA [CACACA_site3477],9.9 ± 0.35
8,TATATCATAAAAAATTGTACATATATATATTATATA [XGTACX_site6726],11 ± 0.69
9,TGATGGGACATAAATATTGAGATGATCATAAGATAA [TGCATGCA_negctrl_site276],10.2 ± 0.21
10,AAAAAAAAAAAAAGTACACACTTTTGCGTACAAGTA [CACACA_site5672],11.9 ± 0.83
11,TATTTATTATATAAATGTACATAATATATGTATGTC [XGTACX_site2815],10.9 ± 0.57
12,ATATAAAATGAACATAGTACTTTTTATATATTTTAA [XGTACX_site7461],10.9 ± 0.66
13,TACCTATACCTATACACACACACACGGAAATAAATA [CACACA_site6750],10.3 ± 0.41
14,AATTTTATAAAAAGTAGTACATATCAAACACCTTGA [XGTACX_site2297],11.6 ± 1.1
15,AAGAAAAAAAAAAAAAAAAAAAAAAAAAATTTATGA [TGCATGCA_negctrl_site294],9.46 ± 0.12
16,CAGTTATTTTAATGTGGTACACAATTTTAAAATTAT [XGTACX_site8571],11.5 ± 0.93
17,TGAAATGATATATAAACACACATATATAAATATGTA [CACACA_site7616],9.5 ± 0.057
18,AAATATAATTTGCGATGTACACATATATATTTATTT [XGTACX_site1568],11.3 ± 0.79
19,TTATGATTATAACGTTTTGACATTAGGCATATATAT [CACACA_negctrl_site1396],10 ± 0.32
20,TGACTTTTTTTTTTTTTTTTTTTTTTTTATCTTTTT [CACACA_negctrl_site481],9.62
21,GACACTTTGAAGGGTACATGCAGAAAAAAAAAAAAA [TGCATGCA_site89],11.2 ± 1.1
22,TTTTATTTATCTAATTGTACTCATTCTTTTTTGATG [XGTACX_site2876],11.4 ± 0.81
